Experimental data published in the RNAGym collection of RNA variant scans (doi:10.1073/pnas.2313332121).
Variants at the floor of the assay are shown more often than the library holds them.

B1: TPR 5TU (parent)
chain: GGAUCUUCUCGAUCUAACAAAAAAGACAAAUCUGCCACAAAGCUUGAGAGCAUCUUCGGAUGCAGAGGCGGCAGCCUUCGGUGGCGCGAUAGCGCCAACGUUCUCAACUAUGACACGCAAAACGCGUGCUCCGUUGAAUGGAGUUUAUCAUG

Variants of: B1
Test: polymerase ribozyme fitness, log enrichment relative to wild type (log ratio); higher = more active; in vitro selection for triplet polymerase activity
How it was run: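 A single round of triplicate in vitro selection, including frozen incubation at −7 °C, was applied to PCR-built, transcribed mutant libraries of each subunit of a heterodimeric triplet polymerase ribozyme. Illumina sequencing of input and output libraries retained genotypes with ≥10 input reads and ≥1 read per output. Fitness is the base-2 logarithm of genotype enrichment divided by wild-type enrichment, from inverse-variance-weighted replicate averages.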

Row | Variant | polymerase ribozyme fitness (log ratio)
1 | A24G U53A C63U C114G U139A G143A A147G | ≤ -4.2
2 | A24U G140A | -4.12
3 | A24U A29U A66G C76U C85G C103U | ≤ -4.2
4 | G25C C132U | -3.65
5 | A24U U45G G92C | -2.88
6 | G25U A40C U82G A91G C95G | ≤ -4.2
7 | A24U A47C G48C C85G G88C | ≤ -4.2
8 | A24G C116U A138C | ≤ -4.2
9 | A24U A30U A39C A40U C63G A64G C87A C108A C131A | ≤ -4.2
10 | A26C C38U G86U U144G | -3.75
11 | G25C U90G A142C | ≤ -4.2
12 | A24C G86C A147C | ≤ -4.2
13 | A24U U53A G80A C85U A142C | ≤ -4.2
14 | G25U U55A G74A C85U A106C G136U U148C | ≤ -4.2
15 | G25U C85G C96G U102G | ≤ -4.2
16 | G25U G48A C69G G94A C95U A97U G112A A115C C116U A119U | ≤ -4.2
17 | A24U G74C U104G C118A A121G | ≤ -4.2
18 | A24G C87A C108A | ≤ -4.2
19 | A26C G68C U82G C87G | ≤ -4.2
20 | G25U G80C | ≤ -4.2
21 | A24G A115G U127A | ≤ -4.2

Row | Variant | polymerase ribozyme fitness (log ratio)
22 | G25A C32A A40C C123A G124A A138C | ≤ -4.2
23 | A24U G62C A89G G136U | ≤ -4.2
24 | A26C C35U U44A C57U G58U C85A | ≤ -4.2
25 | A24U G59A G92A G140U | ≤ -4.2
26 | A24U A41C C76U G80A C85U A121G G141C U144G | ≤ -4.2
27 | A24G C27A A40U A60U A89C | ≤ -4.2
28 | G25U C85G C132G | ≤ -4.2
29 | A24U G68C G81C G94A A98C U104C | ≤ -4.2
30 | A24C C87A A119C | ≤ -4.2
31 | A26C A49G G68U G80U G83A C131A | ≤ -4.2
32 | A24C U45G G80C C96G U109C C114G G140U | ≤ -4.2
33 | A24G A29C A37G G46U C57U C76U A122U A138G U144G U151C | ≤ -4.2
34 | G25C A119C | -2.68
35 | A24C U31A A40C G59C A66C A110C C114A U127G | ≤ -4.2
36 | A24G C96G A137U | ≤ -4.2
37 | A24U G46A U55A C72G G83A C93G A120U G143A | ≤ -4.2
38 | A26C C79U C85G A98G G136A A138C | ≤ -4.2
39 | A24C G84A | ≤ -4.2
40 | A24U A29C U55A G58U C93A A120U A122G G136A C149A | ≤ -4.2
41 | A26C A41C U56A C99A U134C G140A | ≤ -4.2
42 | G25A A30U U56A U135A U144G | ≤ -4.2

Row | Variant | polymerase ribozyme fitness (log ratio)
43 | A26G A39U G80C A106G C123A G126C G143C | ≤ -4.2
44 | A24G C75G G84A C132U | ≤ -4.2
45 | G25C C32U U55A U56A G140U | ≤ -4.2
46 | G25C C93A C95U A107C | ≤ -4.2
47 | A24U U53A U55A G68C C76A C85G | ≤ -4.2
48 | G25U C57U G68U U77A G94A C116U G140A | ≤ -4.2
49 | A26C C54U G59U C79A A106U | ≤ -4.2
50 | A24U U44A A60C C79U | ≤ -4.2
51 | G25U C35A A41G C54U C87U C95U | -3.99
52 | A26C A73C G92A U144A U145C | ≤ -4.2
53 | G25C U33A C69G G71A | ≤ -4.2
54 | A24U C54A G86A | -3.38
55 | A26C U78A A89C C93G A107C A115G U134C | ≤ -4.2
56 | G25C G88U G124A G128U U135C | ≤ -4.2
57 | A24U U44A G48C G83A U101A | ≤ -4.2
58 | G25U G88C C116G G140A | ≤ -4.2
59 | A24G C43A A73G G92C C93U A121G G128U U135A G136U A142C | ≤ -4.2
60 | G25C U45A C72U C76A G81C C87G G92A C108A G141A | ≤ -4.2
61 | A26C U77G C85A C87A | ≤ -4.2
62 | A26C A97U G140C | ≤ -4.2
63 | A26C U55A C57U U77G G112C A142U G143U U144C | ≤ -4.2

Row | Variant | polymerase ribozyme fitness (log ratio)
64 | G25U G68U G83U U104G A115C G141C U148A | ≤ -4.2
65 | A26C A52C C69U G100A C125A | ≤ -4.2
66 | G25U C43G C57U U144G U151A | ≤ -4.2
67 | A24G G83C G88U C116A C132A | ≤ -4.2
68 | G25A C54U C96U A150U | -0.00287
69 | A24U A66U G68C G92A C131G | ≤ -4.2
70 | A24G G84A C114G G133U | ≤ -4.2
71 | G25A G42U C95U U102G U134A | ≤ -4.2
72 | A26G A64U C75U C85A G140A | ≤ -4.2
73 | G25U G46C C57A C93G A106G | ≤ -4.2
74 | A24G A49C U55C C95U C108U | ≤ -4.2
75 | A24U G34U A47C C95G C108A A110G A138C A147C G152A | ≤ -4.2
76 | G25A C93G A119U | ≤ -4.2
77 | A26C U77G | ≤ -4.2
78 | A26C G42A G46C A49G A52C C54U A91U C99U U109G C132U G140U | ≤ -4.2
79 | G25U C35G A40G A47U A91C A107G G133C | ≤ -4.2
80 | A26G A73U G94A | ≤ -4.2
81 | A26C C27G A60G C93A | ≤ -4.2
82 | G25A A26G G58C U61G | ≤ -4.2
83 | G25C A60G G83C C96U G141U | -2.48
